This experiment concerns the target calmodulin immobilized on agarose beads (CaM-agarose) (UniProt P62157). Nature of the experiment: pull-down.

The values that follow come from paper PMC2217413 (The Journal of General Physiology, 2004).

B1: TRPV1Δ205–222 mutant channel (receptor)
chain: not shown
For B1, the “fold decrease of binding against wild-type channels” value was about 10 fold.

B2: TRPV1Δ[…] mutant channel (receptor)
chain: not shown
Regarding B2, the “fold decrease of binding against wild-type channels” value was about 10 fold.
